In publication PMC12350791:
Not every entry of the source has a single result; some have several. They are shown here; other results are not. The source may hold further records. Some protein pairs were linked at several places, one record each.

Each substance was assayed against CCT3 (UniProt P49368) (assay: cross-linking mass spectrometry). Conditions: DSBSO, in cells or nuclear extract, not told apart.

Chain of CCT6A (P40227 whole entry): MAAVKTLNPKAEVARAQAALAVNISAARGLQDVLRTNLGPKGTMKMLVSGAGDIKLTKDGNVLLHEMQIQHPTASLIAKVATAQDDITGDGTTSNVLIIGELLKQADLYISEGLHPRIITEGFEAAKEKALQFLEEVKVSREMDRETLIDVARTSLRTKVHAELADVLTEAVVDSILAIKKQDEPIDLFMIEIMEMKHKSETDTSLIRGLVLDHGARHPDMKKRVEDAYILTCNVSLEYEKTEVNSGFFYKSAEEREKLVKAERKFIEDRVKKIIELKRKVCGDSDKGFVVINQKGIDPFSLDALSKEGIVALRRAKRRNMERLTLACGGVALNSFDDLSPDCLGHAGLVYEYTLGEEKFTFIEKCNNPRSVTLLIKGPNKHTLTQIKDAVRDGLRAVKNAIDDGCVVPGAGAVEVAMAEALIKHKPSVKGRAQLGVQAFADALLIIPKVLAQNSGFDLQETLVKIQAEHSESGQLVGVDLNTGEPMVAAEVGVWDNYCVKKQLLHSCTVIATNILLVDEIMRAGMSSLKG
Chain of TCP1 (P17987 whole entry): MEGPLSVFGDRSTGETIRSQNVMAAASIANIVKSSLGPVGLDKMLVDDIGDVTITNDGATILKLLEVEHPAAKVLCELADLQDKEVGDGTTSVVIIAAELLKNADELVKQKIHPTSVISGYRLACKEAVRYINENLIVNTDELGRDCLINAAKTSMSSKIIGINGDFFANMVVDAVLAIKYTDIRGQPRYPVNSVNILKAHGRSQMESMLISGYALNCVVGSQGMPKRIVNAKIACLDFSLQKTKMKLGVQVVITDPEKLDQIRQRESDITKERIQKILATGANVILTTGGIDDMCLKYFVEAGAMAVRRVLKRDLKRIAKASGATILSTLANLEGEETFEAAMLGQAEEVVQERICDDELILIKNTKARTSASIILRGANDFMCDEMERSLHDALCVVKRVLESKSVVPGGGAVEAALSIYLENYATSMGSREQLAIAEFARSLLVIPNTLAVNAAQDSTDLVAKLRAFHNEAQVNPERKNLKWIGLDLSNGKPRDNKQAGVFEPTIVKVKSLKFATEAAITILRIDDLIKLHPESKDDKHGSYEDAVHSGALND
Chain of CCT3, P49368 (P49368 whole entry): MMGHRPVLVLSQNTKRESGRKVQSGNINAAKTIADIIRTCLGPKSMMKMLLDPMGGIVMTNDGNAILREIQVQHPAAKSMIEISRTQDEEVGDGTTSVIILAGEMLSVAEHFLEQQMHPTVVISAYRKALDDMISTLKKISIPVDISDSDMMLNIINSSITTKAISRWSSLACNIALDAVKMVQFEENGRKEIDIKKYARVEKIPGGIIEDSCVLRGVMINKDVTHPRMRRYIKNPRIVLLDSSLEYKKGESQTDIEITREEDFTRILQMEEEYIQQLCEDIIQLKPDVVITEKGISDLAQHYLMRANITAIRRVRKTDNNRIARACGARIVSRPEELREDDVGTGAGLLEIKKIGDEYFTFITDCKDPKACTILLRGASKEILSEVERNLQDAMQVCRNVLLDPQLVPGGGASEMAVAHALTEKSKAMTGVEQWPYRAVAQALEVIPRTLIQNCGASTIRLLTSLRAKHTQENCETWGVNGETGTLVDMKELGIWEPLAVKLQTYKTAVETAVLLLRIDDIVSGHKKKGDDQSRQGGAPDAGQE
Chain of CCT8, P50990 (P50990 whole entry): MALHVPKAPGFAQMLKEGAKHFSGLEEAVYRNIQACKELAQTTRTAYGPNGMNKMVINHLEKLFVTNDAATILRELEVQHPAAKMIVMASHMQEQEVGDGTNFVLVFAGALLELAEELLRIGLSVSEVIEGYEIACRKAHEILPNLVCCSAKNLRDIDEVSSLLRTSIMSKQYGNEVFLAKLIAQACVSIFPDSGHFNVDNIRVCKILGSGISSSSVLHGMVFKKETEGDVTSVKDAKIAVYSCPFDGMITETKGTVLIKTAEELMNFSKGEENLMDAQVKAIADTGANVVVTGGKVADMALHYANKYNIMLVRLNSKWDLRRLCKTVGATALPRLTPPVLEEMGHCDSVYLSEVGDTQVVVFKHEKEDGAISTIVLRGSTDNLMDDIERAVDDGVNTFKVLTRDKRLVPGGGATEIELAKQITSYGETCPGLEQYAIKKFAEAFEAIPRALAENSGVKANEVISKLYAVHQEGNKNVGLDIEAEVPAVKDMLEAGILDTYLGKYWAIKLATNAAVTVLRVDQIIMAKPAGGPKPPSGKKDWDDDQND
Chain of CCT5 (P48643 whole entry): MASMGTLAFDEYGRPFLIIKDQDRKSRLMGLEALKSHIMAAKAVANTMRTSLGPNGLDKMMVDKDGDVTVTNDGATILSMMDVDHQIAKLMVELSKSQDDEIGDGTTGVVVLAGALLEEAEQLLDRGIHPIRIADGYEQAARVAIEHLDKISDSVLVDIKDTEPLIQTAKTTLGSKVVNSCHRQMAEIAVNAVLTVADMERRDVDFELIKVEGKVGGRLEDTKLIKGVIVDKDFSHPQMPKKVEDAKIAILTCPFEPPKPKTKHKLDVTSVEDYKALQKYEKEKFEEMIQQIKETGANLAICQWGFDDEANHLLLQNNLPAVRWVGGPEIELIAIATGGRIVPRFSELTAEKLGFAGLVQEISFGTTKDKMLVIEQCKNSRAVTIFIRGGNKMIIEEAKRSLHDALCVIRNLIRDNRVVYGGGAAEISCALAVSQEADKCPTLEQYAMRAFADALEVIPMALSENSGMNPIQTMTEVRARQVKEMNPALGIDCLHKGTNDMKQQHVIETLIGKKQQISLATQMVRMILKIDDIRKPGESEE
Chain of PDCD5 (O14737 whole entry): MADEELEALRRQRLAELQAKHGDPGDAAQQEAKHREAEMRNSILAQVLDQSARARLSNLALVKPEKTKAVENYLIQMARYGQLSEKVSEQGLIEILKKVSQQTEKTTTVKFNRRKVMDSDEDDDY
Chain of CCT2 (P78371 whole entry): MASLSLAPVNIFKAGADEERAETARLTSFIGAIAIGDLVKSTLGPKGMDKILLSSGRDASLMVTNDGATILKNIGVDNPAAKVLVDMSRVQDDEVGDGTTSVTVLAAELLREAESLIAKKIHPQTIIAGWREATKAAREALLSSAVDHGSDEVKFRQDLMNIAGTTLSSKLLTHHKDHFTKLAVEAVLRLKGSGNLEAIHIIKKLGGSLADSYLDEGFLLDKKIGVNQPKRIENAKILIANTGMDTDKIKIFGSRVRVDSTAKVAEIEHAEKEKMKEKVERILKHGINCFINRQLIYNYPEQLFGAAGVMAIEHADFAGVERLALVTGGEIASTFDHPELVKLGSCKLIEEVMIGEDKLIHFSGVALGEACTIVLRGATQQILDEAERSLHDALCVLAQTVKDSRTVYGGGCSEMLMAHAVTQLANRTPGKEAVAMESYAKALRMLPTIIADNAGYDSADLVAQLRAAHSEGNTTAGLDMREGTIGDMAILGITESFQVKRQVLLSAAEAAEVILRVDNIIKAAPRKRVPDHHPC

Row | Substance | cross-linked residues
1 | CCT6A, P40227 | K10 - K21 and K127 - K163 and K530 - K78 and K530 - K381
2 | TCP1, P17987 | K73 - K529 and K102 - K21 and K199 - K138 and K494 - K128
3 | PDCD5, O14737 | K20 - K248 and K20 - K249

Each substance was assayed against CCT7 (UniProt Q99832) (assay: cross-linking mass spectrometry). Conditions: DSBSO, in cells or nuclear extract, not told apart.
Chain of UniProt Q99832 (Q99832 whole entry): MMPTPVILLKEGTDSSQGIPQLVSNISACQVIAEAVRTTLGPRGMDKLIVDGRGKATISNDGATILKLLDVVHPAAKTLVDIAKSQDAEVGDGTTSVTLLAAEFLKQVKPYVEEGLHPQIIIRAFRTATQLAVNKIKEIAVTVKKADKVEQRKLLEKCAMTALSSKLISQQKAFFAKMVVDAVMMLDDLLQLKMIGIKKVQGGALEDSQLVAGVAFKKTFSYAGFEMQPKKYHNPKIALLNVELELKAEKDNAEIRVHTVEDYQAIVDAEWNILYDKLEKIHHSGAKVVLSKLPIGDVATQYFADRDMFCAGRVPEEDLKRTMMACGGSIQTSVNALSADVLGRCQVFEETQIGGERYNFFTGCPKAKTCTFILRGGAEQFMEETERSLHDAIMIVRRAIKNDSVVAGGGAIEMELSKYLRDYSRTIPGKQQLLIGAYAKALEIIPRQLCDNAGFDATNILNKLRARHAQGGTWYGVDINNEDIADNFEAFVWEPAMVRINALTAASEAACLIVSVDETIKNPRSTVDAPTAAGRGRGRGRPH

Row | Substance | cross-linked residues
4 | CCT5, P48643 | K232 - K250 and K368 - K250
5 | CCT8, P50990 | K260 - K250 and K296 - K292
6 | CCT2, P78371 | K248 - K250 and K250 - K250

What follows are substances tested against CCT8 (UniProt P50990) (assay: cross-linking mass spectrometry). Conditions: DSBSO, in cells or nuclear extract, not told apart.

Row | Substance | cross-linked residues
7 | CCT6A, P40227 | K10 - K16 and K10 - K20 and K199 - K326 and K199 - K400 and K251 - K260 and K251 - K270 and K307 - K238 and K377 - K400 and K530 - K16
8 | TCP1, P17987 | K466 - K466 and K494 - K466
9 | CCT3, P49368 | K21 - K16 and K21 - K459 and K31 - K20 and K128 - K466
